# Measurements published in the RNAGym collection of RNA variant scans (doi:10.1093/nar/gkz1192).
# The source gives no read counts; variants with many changes may rest on few reads.
# B1: CPEB3 Ribozyme (parent)
# chain: UAACAGGGGGCCACAGCAGAAGCGUUCACGUCGCAGCCCCUGUCAGAUUCUGGUGAAUCUGCGAAUUCUGCUGUAUAUCUC
# Variants of: B1
# Assay: self-cleavage, relative activity (ratio to wild type); higher = more cleavage; in vitro, sequencing
# Summary of the method: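 For each CPEB3 ribozyme variant, relative activity is its cleaved/total read fraction divided by the unmutated ribozyme's. Barcoded error-prone PCR libraries were transcribed by T7 RNA polymerase (5 hours, 37°C) and held in DNase I for 15 min before an EDTA stop, with cleavage occurring throughout. Template-switching reverse transcription and Illumina sequencing were used to read the RNAs. A 5-read minimum applied, and results are the mean of three batches.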
row,Variant,self-cleavage
1,U1C G16A U25C U41A,0.32
2,U1C A64G U72C,0.89
3,U1C U58C G63A A64U,0.16
4,U1C G7U U26C U60C U74A,0.25
5,U1C U25A C39U A45U A57G U78G,0.05
6,U1C C23U A45G,0.3
7,U1C G8A A35U G53C G63U,0.13
8,A2G A5G C12U U25C U51G U60A U80C,0.08
9,U1C U26C U60C U67C G70A,0.29
10,U1C G33A U48C U67C U78C,0.07
11,U1C U60A U69A U72C,0.19
12,U1C U26C A64G U74C U76A,0.52
13,U1C G42A U66C,0.32
14,U1C U26A A64U G70A,0.2
15,A2G A3G C11U,0.82
16,U1C U60C U69A,0.49
17,U1C U25C C27U,0.43
18,U1C G9A U51A U58A A65G U72C,0.15
19,U1C G42A U43C A45C A57G,0.05
20,A2G A3U A20G A21U A45G,0.17
21,U1C G33A A56G A57G,0.08
22,A2C G10C G52A U60A,0.22
23,A2G A3G A18G U72C,0.87
24,A2G A3G U31A,0.7

row,Variant,self-cleavage
1,U1C U41C U43C U78C,0.26
2,U1C G9A A28G U41G,0.06
3,U1C G10U A20G C50U U66C,0.05
4,U1C G9U U31C U60C U78C,0.04
5,U1C C37G G42U U43C,0.1
6,U1C U31A A35U C38U U49C U58C A64G,0.04
7,U1G U25C U31G G36A U60C U69A G73A,0.06
8,A2G A5G A65U,0.19
9,A2C G10U A18G U26C U41C A45C U58C,0.04
10,U1C G55U U66C,0.1
11,U1C C44A C81U,0.48
12,U1C C11U A15G U48C A56U A65G,0.08
13,A2G A5G A64G U74A,1.16
14,U1C G33A A47G A56U A57G U78C,0.05
15,A2G A3G A15G A20U A47U U80C,0.1
16,A2G A3G A5C U80A,1.06
17,U1G U49C A65G,0.26
18,U1C G6U A18G U49A U72C U78A,0.05
19,U1C U66C U72C,0.34
20,U1C U67G U72C U74A,0.18
21,U1G C12U A18G C38U,0.67
22,U1C U26C U49A A64U U67C U74C,0.05
23,A2G A3G U72G,0.66
24,U1C G6A A56G U74C A75G U78A,0.42

row,Variant,self-cleavage
1,U1C U43C U78A,0.71
2,U1C U25C G30A A56G,0.1
3,U1C G7A A35U,0.15
4,U1G A18U A64G U78C,0.18
5,U1C C11U C40U U41C,0.31
6,U1C C40U A56G,0.54
7,U1C G9A C44U G52A U60C,0.29
8,U1C U26G A57G,0.59
9,U1C G24A A56G G70A,0.05
10,U1C U41A A75G,0.27
11,A2G A5G A18U U26C A28G U58A,0.47
12,U1C G10U A13U U25C,0.06
13,A2G A5G C11U U66C,0.18
14,U1G G8A G30C G52C U69C,0.04
15,U1C G10C U41A U43C U54C,0.07
16,U1C A57G U78C,0.64
17,A2G A3G A5U U26C U48A U80A,0.14
18,U1C C38A U41G A47G U48A U80C,0.08
19,U1C U49C U72C,0.31
20,U1G A5U A20G C29U U76C A77G,0.55
21,A2G A3U G7A A13U A15C,0.13
22,U1C U25C U31C A64U,0.06
23,A2G A5G A35G U41A U43C A56U,0.18
24,A2C C14A A28C G46A U49C G53A U72C,0.05

row,Variant,self-cleavage
1,U1C A64G U74G,1.22
2,A2G A3G U26C G30A U60C C68A U78A,0.21
3,U1G U48C A65G A77C,0.2
4,U1C G10C G16A U43C,0.1
5,U1C U26A A56U U58C U80A,0.17
6,A2G A3G A13C A15G U25A A64G U80C,0.81
7,A2C A56C G63U U80C,0.5
8,U1C U26A U49C A57G U72A,0.1
9,U1C C23G A28U A47G,0.21
10,U1C G53C U69A,0.29
11,U1C G10A A13G A20G U25C A45G A64G,0.03
12,U1G C29U U31A A65G U67C,0.2
13,U1C C17U A18G U54C,0.17
14,U1C G6A A56G,0.32
15,U1C C12U A45U G52A A56C U67C,0.11
16,U1C G30U A64U,0.19
17,U1C G9A U26A U43C G63U U72A,0.04
18,U1C U31C C71G C79A,0.29
19,U1G C23U G36A U54C U60C,0.17
20,U1C U41C A57G U72G,0.76
21,A2G A3G A20G C27G A45C,0.15
22,U1G A2G C38U C40U U72G U76A,0.3
23,U1C U25C U31A C59U U76C A77U,0.51
24,U1G C14U A15U C32U U67C,0.21

row,Variant,self-cleavage
1,U1C C17U U31A A47G A77G,0.24
2,U1C G7U A13G A28U A35G A56G A65G,0.04
3,A2G A5G A45G U51A A64G U72C,0.3
4,A2G A5G G24U U26A A65G U78C,0.11
5,U1C G7U U69C,0.26
6,A2C A21G U54C A57G U58C,0.14
7,U1C C12U G24A,0.05
8,U1G A13U A21G A28G A45C U51C,0.04
9,U1C U54C U72A,0.84
10,U1C U67C U69C U78C,0.13
11,A2G A3U U74A U78C,1.25
12,A2C A15G C29A,0.46
13,A2G A5G U25A A47U,0.5
14,U1C G9A U31C C40U A45G G73A,0.25
15,U1C G33A U69A U78C,0.06
16,U1C U25C U51A,0.46
17,U1C G19A U49A A65G,0.16
18,U1C U31C A35G A45G A57G,0.86
19,U1C U26A U49C U60A A64G,0.07
20,U1C C23U U58A U72A,0.04
21,A2C A3G G7C U26C A75C,0.75
22,U1C G6A U67A U74C,0.42
23,U1C G30U U66C,0.18
24,U1C U43C U67A,0.1

row,Variant,self-cleavage
1,A2C A21G U41A U49C U54C U80C,0.07
2,U1C C27U U43A G63A U66C U67A,0.06
3,U1C A57U A64U U66C U72G,0.25
4,U1C U51A A56U U76A,0.49
5,U1C U43C U51A,0.61
6,A2G A5G A64G,0.45
7,U1C U51C U80C,0.88
8,U1C U48A A56U,0.45
9,U1G G6U U43C U49G A57G,0.53
10,A2C A5U A13U C68U,0.57
11,U1C G33A U72G,0.06
12,U1C G10A A13G,0.06
13,U1C C38A U48C A56G A57G,0.05
14,U1C G30C A64G,0.24
15,A2G A5G A15G U31A U43A C44U A64G,0.08
16,U1C U41C U60A,0.58
17,A2G A5G A13G U25C G30A A65G U69A,0.05
18,U1C U60A A65G U69C U78C,0.17
19,U1C A64U U66G,0.19
20,U1C U31C A56C U72A,0.09
21,U1G C39A A57C,0.05
22,A2G A3G G6C C12U U41A C81U,0.26
23,U1C G8A U25A U26G A64U,0.04
24,U1C G30A U74C,0.09

row,Variant,self-cleavage
1,U1C U25G G36U,0.29
2,U1C U60A U72C,0.39
3,U1C U31A A56G,0.34
4,U1C G9A A13U U31G U41C A64G,0.05
5,A2G A3G U48C,0.93
6,U1C G24U A28G U31C U43C A64G,0.17
7,U1G C39G A45U U51C U58C U69A,0.04
8,A2G A3G A18U U48C,0.12
9,U1C U43G A45C A57U U58G U69C,0.07
10,U1C U26C U51A,0.47
11,U1C C12G A77U,0.23
12,U1C U51C U60C,0.27
13,A2G A3U U41A A45G U49C A64G U76C,0.07
14,A2G A3G A15G G19U A65U,0.11
15,U1C U31C A35G A56G A57U,0.47
16,U1C U25C G36U A56G,0.13
17,U1C U60C A65U,0.2
18,U1C C4U U25C U49A,0.38
19,A2G A5C C29G G30A C44A A65G U78C,0.15
20,U1C G10A G30A U78A U80C,0.04
21,U1C C11U A35U U41A,0.24
22,U1C C4U U41C U48C,0.46
23,U1C U41C C62U,0.23
